# Measured values taken from PubChem BioAssay AID686979 (National Center for Advancing Translational Sciences (NCATS), 2013).
# The campaign covered roughly 420,000 compounds. About 50,000 (12%) were called active. Inconclusive means that the source gave no clear call. Such entries were picked first, then a sample of the others. Calls follow the shape of the dose curve; as a rule, active = well fitted inhibition curve with a large enough effect; inconclusive = small, poorly fitted or top-dose-only effect; inactive = flat fitted curve, though single readings scatter. No potency is given beside an inconclusive call; the fits are too rough.
# Assay: qHTS for Inhibitors of human tyrosyl-DNA phosphodiesterase 1 (TDP1): qHTS in cells in presence of CPT; also: nearly all actives have a fitted effect of over 55% in size
# Settings: chicken DT40 Tdp1-/-;hTDP1 cells + 20 nM CPT, ATP luminescence, 48 h; activity change, negative = growth inhibition: at 46.2 µM (top of the series)
# In short: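 Chicken DT40 Tdp1-/- cells complemented with human TDP1, 400 cells/well, exposed to compounds plus 20 nM camptothecin for at least 48 h at 37 C; viability read as ATP content by CellTiter-Glo luminescence.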
# % is scaled to controls: 0 for no effect and ±100 for the full control effect; potency is read from the fitted curve at half-maximal effect; tags tell the direction and shape of the fitted curve.
Compound,"activity change, negative = growth inhibition",Potency
CC(=O)c1nc(-c2ccccc2)sc1C,inactive: 3.19%,–
COc1cccc(N=c2oc3cc(O)ccc3cc2C(=O)NCC2CCCO2)c1 (stereo not given),–,"inconclusive [inhibitor, single point]"
COc1cccc(OC)c1OCC(=O)Nc1ccc(S(=O)(=O)N2CCCC2)cc1,–,"inconclusive [inhibitor, single point]"
Cc1scc(C(=O)NCc2ccco2)c1-c1ccccc1,–,"inconclusive [inhibitor, single point]"
Cc1ccc(S(=O)(=O)NC(C)(C)CSc2nncn2N)cc1,inactive: -5.58%,–
CSc1cccc(N2CC(C(=O)N(CC(C)C)c3c(N)n(Cc4ccccc4)c(=O)[nH]c3=O)CC2=O)c1 (stereo not given),inactive: -2.89%,–
CCC(CO)NC(=O)c1cccc(S(=O)(=O)N2c3ccccc3CC2C)c1 (stereo not given),inactive: -8.23%,–
O=C(Nc1c2c(nn1-c1ccc(Cl)cc1)CS(=O)(=O)C2)c1cccc(Cl)c1,–,active: 16.4 µM
Cc1ccc(S(=O)(=O)NCCC(=O)OCc2ccc([N+](=O)[O-])cc2)cc1C,–,"inconclusive [inhibitor, single point]"
CCCCCCCn1c(=O)c(C(=O)OC)c(N)c2ccccc21,–,active: 3.26 µM
CCOC(=O)C1CCN(S(=O)(=O)c2ccc3c(c2)NC(=O)C(C)S3)CC1 (stereo not given),–,"inconclusive [inhibitor, single point]"
O=C(O)c1ccc(CP(=O)(c2ccccc2)c2ccccc2)cc1,inactive: -1.68%,–
CCCN(CCC)c1ncnc2c1cnn2-c1ccc(OC)cc1,–,"inconclusive [inhibitor, single point]"
O=C(Nc1cc2c(cc1C(=O)O)OCCCO2)c1ccc(C(F)(F)F)cc1,–,"inconclusive [inhibitor, single point]"
C/C(Cn1nnc([N+](=O)[O-])n1)=N\NC(=O)c1cccc(Cl)c1,–,active: 16.4 µM
CN1CCN(C2=Cc3ccccc3Sc3cc(F)c(F)cc32)CC1,–,"inconclusive [inhibitor, single point]"
CCc1cccc(NC(=O)CN(C)C2=NS(=O)(=O)c3ccccc32)c1,–,"inconclusive [inhibitor, single point]"
CCn1c(SCC(=O)Nc2nc(-c3ccc(C)cc3)cs2)nnc1-c1ccccc1O,–,"inconclusive [inhibitor, single point]"
COc1ccc(OC)c(NC(=O)c2cc3cc4ccc(C)cc4nc3s2)c1,–,"inconclusive [inhibitor, partial curve, poor fit]"
N#Cc1c2n(c3c(=O)n(CC(=O)c4ccc([N+](=O)[O-])cc4)cnc13)CCCCC2,–,"inconclusive [inhibitor, single point]"
CC(=O)C1=CCC(c2ccccc2F)N(S(=O)(=O)c2ccc(C)cc2)C1 (stereo not given),–,"inconclusive [inhibitor, single point]"
COC(=O)C[C@H]1C[C@@H]2c3cc(NS(=O)(=O)c4cccc(OC)c4)ccc3O[C@@H]2[C@@H](CO)O1,–,"inconclusive [inhibitor, single point]"
NC(=O)c1ccc(C(=O)N/N=C(/Cc2ccccc2)c2ccccc2)cc1,inactive: -1.77%,–

Compound,"activity change, negative = growth inhibition",Potency
CCOC(=O)c1cc(-c2ccccc2)nn1CC1CC(c2cccc([N+](=O)[O-])c2)=NO1 (stereo not given),–,"inconclusive [inhibitor, partial curve]"
O=C(CNC(=O)c1cccc(Cl)c1)NCC(c1cccs1)N1CCOCC1 (stereo not given),inactive: -8.08%,–
O=C(N/N=C/c1cc(Br)cc(Br)c1O)c1cccc(N2CCCC2=O)c1,–,active: 5.17 µM
O=C(CCc1ccccc1)NNC(=O)c1ccccn1,–,"inconclusive [inhibitor, single point]"
O=C(/C=C/c1ccc2c(c1)OCO2)NCCSCc1ccc(Cl)cc1Cl,–,"inconclusive [inhibitor, single point]"
CCOc1ccc(-c2cc(NC(=O)Nc3ccccc3C(F)(F)F)c(C(=O)OC)s2)cc1,–,"inconclusive [inhibitor, single point]"
COc1ccc(Nc2nnc(SC(C(=O)Nc3cc(C)ccc3C)c3ccccc3)s2)cc1 (stereo not given),–,"inconclusive [inhibitor, single point]"
COc1ccc(S(=O)(=O)Cc2ccc(C(=O)NCc3cccs3)o2)cc1,inactive: -19.5%,–
C=COC(=O)NC1CCc2cc(OC)c(OC)c(OC)c2-c2ccc(SC)c(=O)cc21 (stereo not given),–,active: 0.0259 µM
Cc1ccc2oc(=O)c3cnn(CC(=O)NC4CCCCC4C)c3c2c1 (stereo not given),–,"inconclusive [inhibitor, single point]"
CC(/C=N/NC(=O)c1cc(C(C)(C)C)[nH]n1)=C\c1ccccc1,–,"inconclusive [inhibitor, single point]"
COC(=O)c1ccc(Cn2c(SCC(=O)Nc3ccc(F)cc3)nc3ccccc32)cc1,–,"inconclusive [inhibitor, partial curve]"
CCc1nc2c(OCc3ccccc3)cccn2c1N(C)C(C)=O,inactive: -1.68%,–
Oc1cccc2c(CC(O)c3c[nH]c4ccccc34)ccnc12 (stereo not given),–,"inconclusive [inhibitor, single point]"
NC(=O)c1ccc(NC(=O)COC(=O)c2ccc3c(c2)OCO3)cc1,inactive: -3.59%,–
O=C(NCCc1ccccc1)c1n[nH]c2ccccc12,inactive: -8.71%,–
C=CCn1c(C)cc(C(=O)CSc2nc(N)cc(N)n2)c1C,inactive: -25.8%,–
CCOC(=O)C1CCCN(C(=O)c2cc(-c3cccs3)oc2C)CC1 (stereo not given),–,"inconclusive [inhibitor, single point]"
CCOC(=O)C1=C(COC(=O)CNC(=O)c2cc(OC)c(OC)c(OC)c2)NC(=O)NC1C (stereo not given),–,"inconclusive [inhibitor, single point]"
CCOc1ccc(NC(=O)Cn2c(=O)n(Cc3ccc(C(=O)NCc4ccc5c(c4)OCO5)cc3)c(=O)c3ccccc32)cc1,inactive: -19.6%,–
CC(Cc1c[nH]c2ccccc12)NC(=O)OCCCl (stereo not given),–,"inconclusive [inhibitor, single point]"
CCCCN(CC)Cc1ccc(CNS(=O)(=O)c2cc3c(cc2Cl)NC(=O)CO3)o1,–,"inconclusive [inhibitor, single point]"
